Assay results: publication PMC4336329 (PLoS ONE, 2015)
Out of some 310,000 compounds screened, about 14,000 (4.5%) showed an effect of 50% or more. Effects have a minus sign here. This is one part of the list.

These molecules were tested against human ether-à-go-go-related gene (hERG) potassium channel (human, UniProt Q12809) (assay: primary screen, population patch clamp on CHO cells stably expressing hERG).
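Also: peak tail current of the secondary pulse compared with the same well before compound.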

human ether-à-go-go-related gene (hERG) potassium channel, sequence (Q12809 whole entry, looked up): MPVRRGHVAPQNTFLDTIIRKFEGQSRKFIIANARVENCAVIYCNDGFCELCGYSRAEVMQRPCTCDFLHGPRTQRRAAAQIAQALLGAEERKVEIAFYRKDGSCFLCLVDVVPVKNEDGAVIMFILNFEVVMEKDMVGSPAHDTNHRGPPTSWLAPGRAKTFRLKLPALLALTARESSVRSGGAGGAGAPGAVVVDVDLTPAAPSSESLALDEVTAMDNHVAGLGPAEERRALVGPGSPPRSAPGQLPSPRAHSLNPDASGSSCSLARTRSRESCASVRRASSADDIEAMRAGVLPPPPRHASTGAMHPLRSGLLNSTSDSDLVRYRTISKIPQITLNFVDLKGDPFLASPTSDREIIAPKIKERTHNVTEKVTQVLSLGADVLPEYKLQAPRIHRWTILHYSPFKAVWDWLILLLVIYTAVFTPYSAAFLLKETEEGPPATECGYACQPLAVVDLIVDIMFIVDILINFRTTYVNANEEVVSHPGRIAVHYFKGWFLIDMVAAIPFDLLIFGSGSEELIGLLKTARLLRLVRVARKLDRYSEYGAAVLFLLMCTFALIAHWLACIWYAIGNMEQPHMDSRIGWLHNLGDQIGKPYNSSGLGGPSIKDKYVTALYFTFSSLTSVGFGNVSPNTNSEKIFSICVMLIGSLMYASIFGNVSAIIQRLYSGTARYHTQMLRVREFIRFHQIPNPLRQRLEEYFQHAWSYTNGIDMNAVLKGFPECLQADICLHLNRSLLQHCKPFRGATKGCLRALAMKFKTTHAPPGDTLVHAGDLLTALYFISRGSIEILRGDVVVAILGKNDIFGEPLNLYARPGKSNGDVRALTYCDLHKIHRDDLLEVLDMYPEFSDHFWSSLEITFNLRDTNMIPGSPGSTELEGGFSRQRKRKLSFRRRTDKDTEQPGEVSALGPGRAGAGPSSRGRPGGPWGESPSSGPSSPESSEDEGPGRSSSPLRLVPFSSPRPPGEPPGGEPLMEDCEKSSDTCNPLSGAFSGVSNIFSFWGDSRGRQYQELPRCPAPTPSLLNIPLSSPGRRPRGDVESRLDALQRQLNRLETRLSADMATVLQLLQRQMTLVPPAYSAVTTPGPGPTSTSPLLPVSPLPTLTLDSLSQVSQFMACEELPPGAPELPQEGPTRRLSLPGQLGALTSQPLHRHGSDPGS

Row | SMILES | hERG current change (%, negative = inhibition) at 10uM [%]
1 | COCCN1C(=S)NC(c2cccc(C(F)(F)F)c2)C(C(=O)N2CCOCC2)=C1C (stereo not shown) | -5.05
2 | Cc1ccccc1Cn1ccc(-c2ccc3c(c2)OCO3)n1 | -10.7
3 | CCOc1ccc(S(=O)(=O)Nc2ccc(S(=O)(=O)N3CCOCC3)cc2)cc1 | -13.3
4 | COC(=O)c1ccc(NC2CC(=O)N(c3ccccc3C)C2=O)cc1 (stereo not shown) | -11
5 | CCN(CCC(=O)Nc1cc(OC)cc(OC)c1)Cc1ccccc1 | -65.1
6 | CCN(CC)C(=O)CSc1nc(C)cc(-c2cccs2)c1C#N | 9.22
7 | NC(=O)CC(NC(=O)c1ccccc1)C(=O)O (stereo not shown) | -5.25
8 | Cc1c(NC(=O)c2ccccc2N)cccc1C(=O)O | 2.12
9 | O=C(COC(=O)c1cccs1)NCCN1C(=O)CSC1=O | 14
10 | CC(C)C(NS(=O)(=O)c1cccc(C(F)(F)F)c1)C(=O)O (stereo not shown) | 6.62
11 | O=C(Cc1ccccc1)NCC(=O)N1CCN(c2ccccc2F)CC1 | 2.37
12 | CCOC(=O)Nc1c(O)ccc2oc(C)c(-c3ccccc3)c12 | -1.49
13 | Cc1cccc(NC(=O)c2cc([N+](=O)[O-])ccc2NCC2CCCO2)n1 (stereo not shown) | -80.9
14 | O=C(CSc1nncn1-c1ccccc1)Nc1ccc(F)cc1F | 4.86
15 | CCOC(=O)c1c(NC(=O)CSc2nncn2C)sc(C)c1C | -4.02
16 | C(=C\c1nccc2c1[nH]c1ccccc12)/c1ccccc1 | 4.97
17 | C/C(NCCN1CCOCC1)=C(\C#N)C(N)=O | 3.26
18 | CC(=O)N1CCc2cc(S(=O)(=O)CCC(=O)NCc3ccc(F)cc3)ccc21 | -13.8
19 | COc1ccc(S(=O)(=O)NCC(c2ccc3c(c2)OCO3)N2CCN(C)CC2)cc1OC (stereo not shown) | -15.5
20 | COc1ccc(-c2cnc(N)n2C)cc1 | -11.4

Row | SMILES | hERG current change (%, negative = inhibition) at 10uM [%]
21 | CC(=O)C1=C(O)C(=O)N(c2ccc(Br)cc2)C1c1ccc(Br)cc1 (stereo not shown) | 8.61
22 | Cc1ccc(CS(=O)(=O)c2nsc(C)c2C#N)cc1 | 10.1
23 | O=C(CN1CCCSc2ccccc21)N1CCN(S(=O)(=O)c2cccc(F)c2)CC1 | -21
24 | O=C(CC1Sc2ccccc2NC1=O)NNC(=O)Nc1ccc(Cl)cc1 (stereo not shown) | 9.57
25 | CCc1ccc(S(=O)(=O)Nc2nccs2)cc1 | 8.86
26 | COC(=O)Cn1cnc2scc(-c3ccc(C)cc3)c2c1=O | 7.31
27 | Cc1sc2nc(CSC(C)C(=O)Nc3ccccn3)[nH]c(=O)c2c1C (stereo not shown) | -5.09
28 | Cc1nc(NC(=O)CSc2nncs2)c(Cl)cc1Cl | 6.72
29 | COc1ccccc1CCNC(=O)C1CCCO1 (stereo not shown) | -3.04
30 | CCC(C)NC(=O)C1=C(C)C(=O)OC12CCC(C)CC2 (stereo not shown) | 6.17
31 | O=C(COc1ccccc1/C=C\c1[nH]c(=O)[nH]c(=O)c1[N+](=O)[O-])Nc1ccccc1 | 28.1
32 | COc1ccc(-c2nnc(SCC(=O)c3cccs3)o2)c(OC)c1 | 17.6
33 | O=C(N/N=C/c1coc2ccccc2c1=O)c1ccccc1Br | -0.324
34 | CCOC(=O)Cn1c(=O)oc2cc(S(=O)(=O)Nc3ccc(N(CC)CC)cc3C)ccc21 | -1.88
35 | CN(CC(=O)Nc1cccc(F)c1)C(=O)c1cn2ccccc2n1 | -5
36 | O=C(COC(=O)/C=C/c1nc2ccccc2s1)Nc1ccccc1Oc1ccccc1 | -5.33
37 | Cc1ccc(S(=O)(=O)N2CCOCC2)cc1NC(=O)c1cc([N+](=O)[O-])ccc1N1CCOCC1 | -67.7
38 | CC(Sc1nc(C2CC2)n(-c2ccccc2)n1)C(=O)c1c(N)n(C)c(=O)n(C)c1=O (stereo not shown) | -21.3
39 | CN(Cc1cnn(C)c1)C(=O)c1ccc(OC2CCN(CCc3ccccc3)CC2)cc1 | -42.9
40 | CC(C)(C)c1cc(C(=O)NNC(=O)c2ccc(C(F)(F)F)cc2)no1 | 7.55

Row | SMILES | hERG current change (%, negative = inhibition) at 10uM [%]
41 | Cn1nc(Cc2cccc3ccccc23)c(C#N)c1N | 8.28
42 | CCOc1ccc(-n2c(SCc3nc(-c4cccs4)no3)nnc2-c2ccncc2)cc1 | -59.7
43 | CCCCn1c(N)c(N(CCOC)C(=O)c2cc(S(=O)(=O)N3CCCCC3)ccc2C)c(=O)[nH]c1=O | 9.36
44 | Cc1cccc(C(=O)NNC(=O)c2ccccc2O)c1 | 13.8
45 | COC(=O)c1cc(S(=O)(=O)N2CCC(C(N)=O)CC2)oc1C | 14.7
46 | NNC(=O)Nc1cccc(C(F)(F)F)c1 | 14.4
47 | O=c1cc(CCl)[nH]c2nc3ccccc3n12 | -6.02
48 | Cc1c(NC(=O)COc2cccc(F)c2)c(=O)n(-c2ccccc2)n1C | -0.593
49 | O=C(Nc1cccnc1Cl)C1=NN(c2ccccc2)C(=O)CC1 | -14
50 | CC1CCN(S(=O)(=O)c2ccc(C(=O)Nc3nnc(C4CC4)o3)cc2)CC1 | -9.81
51 | Cc1nc(NCC2CC2)c2nnn(Cc3ccccc3)c2n1 | -1.52
52 | C[N+]1(CC(=O)OCCCc2ccccc2)CCCC1.[I-] | 15.6
53 | CCOc1ccccc1C(=O)Nc1nncs1 | 5.31
54 | COc1ccccc1NS(=O)(=O)c1ccc(C(=O)NCCCn2ccnc2)cc1 | 7.77
55 | O=C(CSc1nnc(-c2ccc(OC(F)F)cc2)o1)NCc1cccs1 | -40.7
56 | COc1ccc(N2CC(C)Cn3c2nc2c3c(=O)n(Cc3ccccc3F)c(=O)n2C)c(OC)c1 (stereo not shown) | -47.4
57 | COc1cc(NC(=O)c2ccco2)c(C(=O)O)cc1OC | -6.08
58 | Cc1cc(CNC(=O)COc2ccc(C)c(C)c2)c2ccccc2n1 | 2.15
